Results as given in PubChem BioAssay AID485344 (National Center for Advancing Translational Sciences (NCATS), 2010).
Hit rate of the full screen: of about 340,000 compounds, about 6,900 (2%) were called active. Rule as the data show it: active = inhibition above about 30%; inactive = below that, where a call was filed. This is a selection; strong and weak results do not stand in their true shares. Where no call is shown, the source filed none.

Molecular target: D(2) dopamine receptor (Homo sapiens) (UniProt P14416)
Sequence of UniProt P14416 (P14416 whole entry, looked up): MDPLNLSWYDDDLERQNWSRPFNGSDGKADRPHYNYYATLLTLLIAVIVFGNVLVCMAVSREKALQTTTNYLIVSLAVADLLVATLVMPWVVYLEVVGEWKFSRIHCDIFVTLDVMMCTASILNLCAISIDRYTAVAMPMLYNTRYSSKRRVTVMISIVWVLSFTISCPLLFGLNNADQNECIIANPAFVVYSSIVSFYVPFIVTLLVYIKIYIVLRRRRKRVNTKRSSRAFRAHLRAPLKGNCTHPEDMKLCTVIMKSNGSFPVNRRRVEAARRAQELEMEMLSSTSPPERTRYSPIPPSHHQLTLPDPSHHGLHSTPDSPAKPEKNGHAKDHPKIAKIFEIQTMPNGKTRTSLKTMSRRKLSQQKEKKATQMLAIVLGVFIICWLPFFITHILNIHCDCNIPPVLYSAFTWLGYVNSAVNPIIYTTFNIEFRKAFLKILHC
Experiment: HTS Assay for Allosteric Antagonists of the Human D2 Dopamine Receptor: Primary Screen for Antagonists; also: 0% is about no effect
Details: HEK293 TREx D2 cells, calcium flux, dopamine EC80; at 10 µM; stronger effect = higher value
How it was run: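 Tetracycline-induced HEK293 T-REx cells expressing D2 force-coupled to calcium signalling were dye-loaded, exposed to compound for 180 s, then challenged with an EC80 of dopamine; calcium flux was followed kinetically for a further 180 s.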

| SMILES | inhibition |
| --- | --- |
| CCc1ccc(CN2CCc3nc(N4CCN(CC)CC4)ncc3C2)cc1 | 8.54% |
| CCc1cccc(CN2CCC(CNC(=O)Nc3ccc(Cl)cc3)CC2)c1 | active: 35.5% |
| Cc1oc2ncnc(N3CCCCC3)c2c1C(=O)N1CCN(c2cccc(Cl)c2)CC1 | -6.12% |
| CCCN1C(=O)C2(c3ccccc31)c1c(oc3ccc(F)cc3c1=O)C(=O)N2CCCOC(C)C (stereo unspecified) | 8.3% |
| CN(C(=O)CSc1nnc(-c2ccccc2F)o1)C1CCCCC1 | -6.67% |
| c1coc(-c2nc3n(n2)C2(CCCCC2)[C@@H]2CCCC[C@@H]2N3)c1 | 20.8% |
| COc1cc(NC(=O)CCc2c(C)nc3cc(-c4ccccc4)nn3c2C)cc(OC)c1OC | 4.46% |
| CCOc1ccc(CN(C(=O)c2cc(=O)c3cc(C)cc(C)c3o2)C2CCS(=O)(=O)C2)cc1 (stereo unspecified) | 4.13% |
| Cc1ccc2c(c1)c(=O)c(C(=O)c1ccc3c(c1)OCO3)cn2Cc1ccc(Cl)cc1 | -25.1% |
| CSc1ccc(/C=C/c2nc3ccccc3n2S(=O)(=O)c2cccc(Cl)c2)cc1 | -4.01% |
| CCC(CC)C(=O)Nc1nnc(SCc2cc(=O)n3cccc(C)c3n2)s1 | 7.38% |
| CCOc1ccc(CN2C(=O)c3ccccc3Sc3ccc(C(=O)O)cc32)cc1 | -13.3% |
| O=C(NCCc1ccc(Cl)cc1)C(=O)NCC(c1ccco1)S(=O)(=O)c1ccc(Cl)cc1 (stereo unspecified) | -25.2% |
| Cc1ccc(C(=O)OC2CCOC2=O)cc1NC(=O)c1ccco1 (stereo unspecified) | active: 35.4% |
| CCCN1CCN(C(=O)CCc2nnc3ccc(N4CCN(c5cccc(OC)c5)CC4)nn23)CC1 | active: 31.8% |
| Clc1ccc(CN2CCC(c3ccccc3)CC2)cc1 | active: 84.7% |
| Cc1ccc(Cl)cc1NC(=O)c1oc2ccc(S(=O)(=O)N(C)C3CCCCC3)cc2c1C | 18.1% |
| CC(=O)CSc1nnc2cc(C)c3cc(C)cc(C)c3n12 | -3.68% |
| CCc1nonc1NC(=O)c1oc2ccc(Br)cc2c1C | -11.6% |
| Nc1nc(CN2CCN(c3ccccn3)CC2)nc(Nc2ccc(F)cc2)n1 | active: 73.2% |
| CC1(C)OC(=O)N2CCc3ccccc3C21C (stereo unspecified) | active: 40.5% |

| SMILES | inhibition |
| --- | --- |
| CCc1ccc(-n2c(=O)c3c4c(sc3n(CC(=O)N3CCC(C)CC3)c2=O)CCC4)cc1 | -5.63% |
| Cc1ccc(NC(=O)C2CCCN(S(=O)(=O)c3cccc4cccnc34)C2)cc1 (stereo unspecified) | 25.3% |
| Cc1ccc(Cl)cc1NC(=O)c1oc2ccc(S(=O)(=O)N3CCCCC3)cc2c1C | 16.8% |
| COc1ccc(OCc2ccc(-c3nc(C#N)c(NC(C)c4ccccc4)o3)o2)cc1 (stereo unspecified) | 11.3% |
| CCOc1ccc2nc(N3CCCC(C(=O)NCCc4ccc(OCC)c(OCC)c4)C3)sc2c1 (stereo unspecified) | 8.27% |
| Cc1cccc(C)c1Nc1c(-c2ccccn2)nc2c(C)cccn12 | 1.98% |
| Cc1nn(CC(=O)Nc2ccc(OC(F)(F)F)cc2)c(=O)c2c(C)n(-c3ccc(Cl)cc3)nc12 | 19.2% |
| COc1ccc(CCNC(=O)c2nc(-c3ccc(Cl)cc3)n3c2CCCCC3)c(OC)c1 | 7.23% |
| COC(=O)c1ccccc1NC(=O)C1=CC(c2cccs2)=NS(=O)(=O)N1C | -12.8% |
| Cc1cc(OCC(=O)Nc2cc(-c3nc4ncccc4o3)ccc2C)ccc1Cl | 13.6% |
| COc1ccc(-n2nc3cc(C)c(NC(=O)c4ccc(-c5ccc(Cl)cc5)o4)cc3n2)cc1 | -6.37% |
| Cc1ccc(S(=O)(=O)c2nnn(-c3ccc(F)c(Cl)c3)c2N)cc1 | 15.2% |
| CCc1ccc(S(=O)(=O)Nc2ccc3c(c2)n(C)c(=O)c(=O)n3C)cc1 | -12% |
| CCC(=O)N1CCc2cc(Br)cc(S(=O)(=O)CCC(=O)N3CCN(c4cccc(C)c4)C(C)C3)c21 (stereo unspecified) | -2.49% |
| Cc1ccc2c(c1)C(c1ccc(F)cc1)N(C(=O)c1ccc(S(=O)(=O)N3CCCCC3)cc1)CC(=O)N2 (stereo unspecified) | -9.16% |
| COc1ccc(C(=O)Nc2ccc3nc(SCC(=O)N4CCc5ccccc54)sc3c2)cc1 | 19.1% |
| COc1ccc(NC(=O)CCNS(=O)(=O)c2ccc3c(c2)CCCC(=O)N3)cc1Cl | -1.56% |
| O=C(NCc1ccc(Cl)cc1)NCc1noc2ccccc12 | 23.9% |
| Cc1cc(C)c2sc(NNC(=O)C3COc4ccccc4O3)nc2c1 (stereo unspecified) | active: 32.5% |
| O=C(Cc1cccs1)NC1CC(=O)N(c2ccc(F)cc2)C1 (stereo unspecified) | -6.97% |
| Cc1oc(-c2ccc(C(=O)NCc3ccccc3)cc2)nc1CN1CCc2ccccc21 | 0.18% |

| SMILES | inhibition |
| --- | --- |
| COc1ccc(-c2nc3ccccc3s2)cc1NC(=O)c1ccccc1F | -3.31% |
| CCOCCCNC(=O)c1ccc(-n2c(-c3ccccc3)cc3c2CCC(C)C3)cc1 (stereo unspecified) | -7.21% |
| COc1ccc2c(c1)cc1c(=O)n(CC(=O)NC(C)CCc3ccccc3)nc(C)n12 (stereo unspecified) | 15.8% |
| Cc1ccc(-c2ccc(=O)n(CC(=O)NCCc3ccccc3)n2)cc1 | -4.04% |
| O=S(=O)(NCCc1csc2nc(-c3ccccc3)nn12)c1cc(F)ccc1F | -15.6% |
| Cc1ccc(-n2ncc3c(Nc4cccc(C(=O)O)c4)ncnc32)cc1 | -7.87% |
| Cc1ccc(NC(=O)C(=O)NCC(c2cccnc2)N2CCN(Cc3ccccc3)CC2)cc1F (stereo unspecified) | 9.23% |
| Cc1cccc(/C=C/c2onc(C)c2S(=O)(=O)N2CCC(C(=O)N3CCCCC3)CC2)c1 | -9.81% |
| COc1ccc(-c2[nH]c(-c3ccc(Cl)cc3)nc2SCC(=O)NCC2CCCO2)cc1 (stereo unspecified) | 26% |
| CCCCn1cnc2cc(NCc3ccccc3Cl)ccc21 | 28.3% |
| CCCSCCCNC(=O)C1CCN(c2nc3ccccc3nc2C(F)(F)F)CC1 | -10.3% |
| CC(=O)N1CCCc2cc(S(=O)(=O)N3CCCC(C(=O)N4CCN(c5ccccc5)CC4)C3)ccc21 (stereo unspecified) | -5.13% |
| Cc1ccc(S(=O)(=O)n2nc(-c3ccc(Cl)cc3)nc2NCc2ccc(F)cc2)cc1 | 7.54% |
| COc1ccc(CNC(=O)c2cc3cc(OC)ccc3oc2=O)cc1 | 19.8% |
| Cc1cc(C)c2c(CC(=O)Nc3ccc(S(=O)(=O)Nc4nc(C)cc(C)n4)cc3)coc2c1 | -19.3% |
| CCOc1ccc(NC(=O)Cn2c(=O)n(CCCCCC(=O)NCc3ccccc3)c(=O)c3sccc32)cc1 | 8.42% |
| CCc1ccc2occ(CC(=O)Nc3c(C(=O)c4ccc(C)cc4)oc4ccccc34)c2c1 | -7.55% |
| COc1ccc(S(=O)(=O)Nc2c(C)nc3nc[nH]n3c2=O)cc1 | 22.8% |
| Cc1ccc2c(CNCc3ccc(C)o3)c(C(=O)O)n(Cc3ccccc3C)c2c1 | 8.75% |
